Data published in article PMC4336329 (PLoS ONE, 2015).
Screen size: about 310,000 compounds; about 14,000 (4.5%) showed an effect of 50% or more. The effect is printed as a negative number. The list shows a part of the results.

What follows are compounds tested against human ether-à-go-go-related gene (hERG) potassium channel (human, UniProt Q12809) (assay: primary screen, population patch clamp on CHO cells stably expressing hERG).
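Note: peak tail current of the secondary pulse compared with the same well before compound.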

Sequence of human ether-à-go-go-related gene (hERG) potassium channel (Q12809 whole entry, looked up): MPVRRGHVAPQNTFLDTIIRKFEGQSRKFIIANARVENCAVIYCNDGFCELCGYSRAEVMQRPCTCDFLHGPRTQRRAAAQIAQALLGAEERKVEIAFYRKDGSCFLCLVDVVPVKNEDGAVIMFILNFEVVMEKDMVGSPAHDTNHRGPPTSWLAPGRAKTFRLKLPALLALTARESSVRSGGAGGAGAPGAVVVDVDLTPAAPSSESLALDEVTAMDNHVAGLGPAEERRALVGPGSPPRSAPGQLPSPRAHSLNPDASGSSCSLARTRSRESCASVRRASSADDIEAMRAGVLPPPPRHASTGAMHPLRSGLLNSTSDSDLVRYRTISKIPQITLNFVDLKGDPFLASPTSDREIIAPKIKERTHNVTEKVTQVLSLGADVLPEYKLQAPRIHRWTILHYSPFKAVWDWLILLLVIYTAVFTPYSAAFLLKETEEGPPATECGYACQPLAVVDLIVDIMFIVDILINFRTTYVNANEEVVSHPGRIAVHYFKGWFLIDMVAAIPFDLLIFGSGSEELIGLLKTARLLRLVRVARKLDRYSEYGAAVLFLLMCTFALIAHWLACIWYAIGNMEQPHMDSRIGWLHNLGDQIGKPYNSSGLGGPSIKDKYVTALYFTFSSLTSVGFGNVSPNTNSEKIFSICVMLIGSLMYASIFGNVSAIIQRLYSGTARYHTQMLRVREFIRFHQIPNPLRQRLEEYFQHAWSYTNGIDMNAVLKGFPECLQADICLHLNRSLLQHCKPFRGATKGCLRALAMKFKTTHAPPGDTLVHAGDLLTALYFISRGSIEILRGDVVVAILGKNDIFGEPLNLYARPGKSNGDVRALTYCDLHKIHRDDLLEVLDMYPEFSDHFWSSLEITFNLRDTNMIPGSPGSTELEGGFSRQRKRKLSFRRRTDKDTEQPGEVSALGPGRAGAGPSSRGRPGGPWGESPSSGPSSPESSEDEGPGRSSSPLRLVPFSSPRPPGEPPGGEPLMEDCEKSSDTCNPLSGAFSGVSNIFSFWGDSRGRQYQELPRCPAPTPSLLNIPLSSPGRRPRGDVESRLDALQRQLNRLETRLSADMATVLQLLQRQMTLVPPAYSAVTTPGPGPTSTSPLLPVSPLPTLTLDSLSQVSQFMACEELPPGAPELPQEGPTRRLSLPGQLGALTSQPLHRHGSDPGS

Question: For `Cc1cc(=O)[nH]c(N/N=C/c2ccc(Cl)c([N+](=O)[O-])c2)n1`, which “hERG current change (%, negative = inhibition) at 10uM” value is on record?
Answer: The value was -16.5%.

Question: For `Cc1cc(-c2ccccc2)n2ncc(-c3ccccc3)c2n1`, which “hERG current change (%, negative = inhibition) at 10uM” value is on record?
Answer: The value was 4.32%.

Question: With `O=C(Nc1ccc(Cl)cc1)c1cc2c(cc1O)[nH]c1ccccc12` as the compound, how does the “hERG current change (%, negative = inhibition) at 10uM” value read?
Answer: The value was 21%.

Question: For `O=C(Nc1ccc(-c2nnn(CC(=O)N3CCN(C(=O)c4ccco4)CC3)n2)cc1)c1ccccc1F`, which “hERG current change (%, negative = inhibition) at 10uM” value is on record?
Answer: The value was -53.2%.

Question: Which “hERG current change (%, negative = inhibition) at 10uM” value does the source give for `CC(C)(C)CNC(CO)C12CC3CC(CC(C3)C1)C2.Cl` (centres unmarked) here?
Answer: Its value is -4.3%.

Question: With `Cc1cccn2c(CN[C@H]3CCCCNC3=O)c(C(=O)N3CCOCC3)nc12` as the compound, how does the “hERG current change (%, negative = inhibition) at 10uM” value read?
Answer: Its value is 19.9%.

Question: How did the “hERG current change (%, negative = inhibition) at 10uM” value turn out when `CCOc1ccc(CCNC(=O)c2cccc(C#N)c2)cc1OCC` was run?
Answer: Its value is -6.55%.

Question: `CC(=O)c1cccc(NC(=O)/C(=C/c2ccncc2)NC(=O)c2ccccc2)c1` was tested. Which “hERG current change (%, negative = inhibition) at 10uM” value did it give?
Answer: The value was 10.9%.

Question: For `COc1ccccc1CCN=C(N)NS(=O)(=O)c1ccc(C)cc1`, which “hERG current change (%, negative = inhibition) at 10uM” value is on record?
Answer: The value was -7.61%.

Question: How did the “hERG current change (%, negative = inhibition) at 10uM” value turn out when `O=c1c(Cc2c(F)cccc2Cl)c(O)ccn1CCc1ccccn1` was run?
Answer: The value was 9.97%.

Question: How did the “hERG current change (%, negative = inhibition) at 10uM” value turn out when `COc1ccc2c(c1OC)C(=O)N1C2SC(C)(C)[C@H]1C(=O)NC1CCCC1` (some centres unmarked) was run?
Answer: Its value is 8.48%.

Question: For `CC1(C)CC(=O)C(C(C2=C(O)CC(C)(C)CC2=O)c2cccs2)C(=O)C1` (centres unmarked), which “hERG current change (%, negative = inhibition) at 10uM” value is on record?
Answer: The value was -13.9%.

Question: How did the “hERG current change (%, negative = inhibition) at 10uM” value turn out when `Cl.O=S(=O)(c1ccc2nc(Cc3ccccc3)[nH]c2c1)N1CCOCC1` was run?
Answer: Its value is -6.54%.

Question: Which “hERG current change (%, negative = inhibition) at 10uM” value does the source give for `O=C(/C=C/c1ccc2c(c1)OCO2)c1ccccn1` here?
Answer: The value was -3.32%.

Question: `O=C(O)CCC(=O)N1CCc2c([nH]c3ccccc23)C1C(F)(F)F` (centres unmarked) was tested. Which “hERG current change (%, negative = inhibition) at 10uM” value did it give?
Answer: The value was 15.7%.

Question: Which “hERG current change (%, negative = inhibition) at 10uM” value does the source give for `Cc1ccc(NC(=O)CCSc2nnc3ccccn23)cc1` here?
Answer: The value was 2.6%.

Question: Which “hERG current change (%, negative = inhibition) at 10uM” value does the source give for `Cc1ccc(S(=O)(=O)NCc2ccc(C(=O)NC3CCC(O)CC3)cc2)cc1C` (centres unmarked) here?
Answer: The value was 1.45%.

Question: For `CCCNC(=O)c1onc(CSc2ccc(Cl)cc2)c1C(=O)NC(C)C`, which “hERG current change (%, negative = inhibition) at 10uM” value is on record?
Answer: The value was -31.2%.

Question: `CCOc1ccc(N2C(=O)NC(=O)/C(=C\c3ccc(N4CCCCC4)o3)C2=O)cc1` was tested. Which “hERG current change (%, negative = inhibition) at 10uM” value did it give?
Answer: Its value is 1.36%.

Question: With `COc1ccc(-c2cc(-c3ccccc3)nc(=O)[nH]2)cc1` as the compound, how does the “hERG current change (%, negative = inhibition) at 10uM” value read?
Answer: The value was -5.62%.

Question: Which “hERG current change (%, negative = inhibition) at 10uM” value does the source give for `Cc1cccc(N2C(=O)CC(Sc3nc(-c4ccccc4)c4cc(Cl)ccc4n3)C2=O)c1` (centres unmarked) here?
Answer: The value was 4.73%.

Question: With `COc1ccc(C(=O)N(C)Cc2ccccc2F)cc1S(=O)(=O)N1CCCC1` as the compound, how does the “hERG current change (%, negative = inhibition) at 10uM” value read?
Answer: The value was -9.86%.

Question: How did the “hERG current change (%, negative = inhibition) at 10uM” value turn out when `COc1ccc(COC(=O)Oc2ccc(CNC(C)=O)cc2OC)c([N+](=O)[O-])c1` was run?
Answer: Its value is -8.37%.
